Data on 61 compounds can be found in PubChem BioAssay AID1963576 (National Center for Advancing Translational Sciences (NCATS), 2024).

Among all 46,000 compounds or so, about 60 (0.1%) were called active. Not shown: some 3% with an inconclusive outcome. Calls come from the whole dose curve; as a rule, active = well fitted inhibition curve with a large enough effect; inconclusive = small, poorly fitted or top-dose-only effect; inactive = no such curve, though single readings can be large or run the other way. The list shows a part of the results.

A short description of this experiment: Primary qHTS assay for Inhibitors of ovarian cancer metastasis using an organotypic tumor microenvironment (TME) model.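 For activity change, negative = inhibition: plate controls were DMSO wells for no effect and tomatine positive control wells for full effect.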 Note: nearly all actives have a fitted effect of over 65% in size. To be noted: SKOV3ip1-GFP adhesion/invasion on 3D omental model, fluorescence; series mostly up to 45.8 µM; activity change, negative = inhibition: at the top concentration. Put shortly:
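Primary human omental fibroblast/mesothelial 3D culture pre-formed 48 h. SKOV3ip1-GFP cells added with compounds (0.36-46 umol/L), incubated 2 h RT/16 h 37 C, fixed; GFP cells quantified at 488/509 nm.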
(Quantitative high-throughput screening tests each substance at several concentrations.)
With `COc1cc(N2CCC(N3CCN(C)CC3)CC2)ccc1Nc1ncc(Cl)c(Nc2ccccc2S(=O)(=O)C(C)C)n1`, the “activity change, negative = inhibition” value is inactive: -6.59%.
Turning to `COc1ccc(N2CCN(c3oc(/C=C/c4ccccc4OC)nc3C#N)CC2)cc1`, the outcome was inactive.
On the same count and under the same terms, the result for `COc1ccc(NC(=O)C(=O)NCc2ccco2)c(OC)c1` reads “inactive”.
Consider `COc1ccc(OC)c(CNC(=O)C2CCN(S(=O)(=O)c3ccc4[nH]c(=O)oc4c3)CC2)c1`, for which the “activity change, negative = inhibition” value was inactive: 4.61%.
As to `CCOc1ccc(CC(=O)Nc2c(C(=O)c3ccc(F)cc3)oc3ccc(Cl)cc23)cc1OCC`, the call was inactive.
Take `O=C(Nc1ccc(C(=O)OCc2cc(=O)n3ccsc3n2)cc1)c1cccc(F)c1`: the “activity change, negative = inhibition” value was inactive: -1.27%.
The same measure, in the same setting: the result for `Cc1cc(C)cc(NC(=O)N2CCC(N3CCN(Cc4ccccc4)C(=O)C3=O)CC2)c1` reads inactive: 2.37%; that for `CC(C)Oc1ccc(CNC(=O)c2cccc(NC(=O)c3nsc4ccccc34)c2)cc1`, inactive: -5.39%.
The same measure, in the same setting: in the case of `COc1ccc(N2Cc3cccc(C(=O)Nc4cccc(F)c4)c3C2=O)cc1` it was inactive: 3.34%; in that of `Cn1c(C(=O)N2CCC(C(=O)N3CCN(c4ccccc4)CC3)CC2)cc2sccc21`, inactive: -6.48%.
On the same count and under the same terms, the result for `Cc1nnc(N2CCN(c3cccc(C(F)(F)F)c3)CC2)c2c1nnn2Cc1ccccc1` reads inactive: 0.713%.
Regarding `Cc1ccc(CNC(=O)c2c[nH]n3c(=O)c(Cc4ccc(F)cc4Cl)c(C)nc23)cc1`, the “activity change, negative = inhibition” value is inactive: 7.3%.
The same measure, in the same setting: the result for `CN(C)c1ccc(C(=O)Nc2ccc(-c3nc4ccccc4o3)cc2)cc1` reads inactive: -0.113%; that for `Cc1ccc(-c2cc(NC(=O)C(C)Oc3ccccc3F)on2)cc1` (stereo unspecified), inactive: -3.44%.
Still for that read-out and setting: the result for `Cc1cc(NC(=O)C2CCCN(S(=O)(=O)c3cn(C)cn3)C2)ccc1Br` (stereo unspecified) reads inactive: 25.6%.
On the same count and under the same terms, in the case of `Cc1noc2ncnc(NCc3ccc(Cl)cc3)c12` it was inactive: -25.7%.
`O=C(Nc1nc2c(s1)CCCC2)c1ccccc1F`: the result was inactive.
As to `COc1cc(OC)c(C=CS(=O)(=O)Cc2ccc(OC)c(NCC(=O)O)c2)c(OC)c1`, the “activity change, negative = inhibition” value was inactive: 24.3%.
On the same count and under the same terms, in the case of `CC(C)c1ccc(C2=NC(c3ccncc3)=Nc3ccc(F)cc3N2)cc1` it was inactive: 1.91%; in that of `Cc1ccc(NC(=O)c2ccc(N(Cc3ccccc3)S(C)(=O)=O)cc2)cc1`, inactive: -0.306%.
As for `C[C@@H](O)[C@H]1C(=O)N2C(C(=O)OCOC(=O)C(C)(C)C)=C(SC3CN(C4=NCCS4)C3)[C@H](C)[C@H]12`, the “activity change, negative = inhibition” value was inactive: -9.47%.
Still for that read-out and setting: in the case of `CC(=O)O[C@]1(C(C)=O)CC[C@H]2[C@@H]3C=C(Cl)C4=CC(=O)[C@@H]5C[C@H]5[C@]4(C)[C@@H]3CC[C@@]21C` it was inactive: -21.4%.
Same read-out and setting: the result for `CCOC(=O)c1ccc(N2C(=O)c3n[nH]c(-c4cccs4)c3C2c2ccc(OC)cc2OC)cc1` (stereo unspecified) reads inactive: 32.6%.
Same read-out and setting: in the case of `Cc1ccc(C(=O)c2oc3ccccc3c2NC(=O)C(C)Oc2ccccc2Cl)cc1` (stereo unspecified) it was inactive: 7.14%.
Turning to `CCOC(=O)N1CCC(NC(=O)c2ccc3c(c2)N(Cc2ccc(Cl)cc2)C(=O)c2ccccc2S3(=O)=O)CC1`, the outcome was inactive.
Take `CC(C)c1ccc2oc(-c3ccc(Cl)c(NC(=O)Cc4ccccc4)c3)nc2c1`: the “activity change, negative = inhibition” value is inactive: 3.08%.
On the same count and under the same terms, the result for `CCC1CCc2c(sc(NC(=O)C3c4ccccc4Oc4ccccc43)c2C(=O)OC)C1` (stereo unspecified) reads inactive: -0.662%.
On to `CNC(=O)c1ccc2nc(Cc3ccccc3)oc2c1`, for which the compound was classed as inactive.
Regarding `COc1ccc(OC)c(CCNC(=O)c2nn(C)c3c2CSc2ccccc2-3)c1`, the “activity change, negative = inhibition” value was inactive: 13%.
The same measure, in the same setting: in the case of `CCOc1ccc(Cn2c(CNS(=O)(=O)c3ccc(CC)cc3)nc3cccnc32)cc1` it was inactive: 8.11%; in that of `CCCn1cc(S(=O)(=O)c2ccc(CC)cc2)c(=O)c2cc(F)c(N3CCN(C)CC3)cc21`, inactive: 8.91%.
For the compound `CCOC(=O)c1c(S(=O)(=O)N2CCN(c3cccc(C(F)(F)F)c3)CC2)c(C)n(C)c1C`, the call was inactive.
On the same count and under the same terms, in the case of `O=C(Nc1ccc(Br)cc1F)c1cc2nc(-c3ccco3)cc(C(F)(F)Cl)n2n1` it was “inactive”.
Consider `COc1ccc(NC(=O)c2c(NCc3cccs3)sc3c2CCCCC3)c(OC)c1`, for which the “activity change, negative = inhibition” value was inactive: 19.7%.
For the compound `Cc1cc(Br)ccc1NC(=O)CCNS(=O)(=O)c1cccc2nonc12`, the outcome was inactive.
On to `O=C(Cn1cc(SCc2ccccc2F)c2ccccc21)N1CCCC1`, for which the “activity change, negative = inhibition” value is inactive: -4.78%.
Turning to `COc1ccc2c(c1)CC(C(=O)Nc1ccc(OC)cc1OC)CO2` (stereo unspecified), the “activity change, negative = inhibition” value was inactive: 18.9%.
Turning to `CCCOc1ccc2nc(NC(=O)OC)[nH]c2c1`, the “activity change, negative = inhibition” value is inactive: 9.28%.
Regarding `O=S(=O)(c1ccc(OC(F)(F)F)cc1)N1CCC(c2nc3ccccc3s2)CC1`, the “activity change, negative = inhibition” value was inactive: -3.03%.
The same measure, in the same setting: the result for `CCOc1ccc(OCC)c(Nc2nc3ccc(C(=O)c4ccccc4)cc3n3cnnc23)c1` reads inactive: -0.608%.
Take `COc1ccc(C2=NN(CC(=O)NCCc3ccccc3)C(=O)CC2)cc1`: the outcome was inactive.
`Cn1c(=O)c2cc(C(=O)Nc3cccc(C#N)c3)sc2c2ccccc21`: the “activity change, negative = inhibition” value is inactive: 1.6%.
With `CCc1ccc(NC(=O)C2CCN(S(=O)(=O)c3c(C)noc3C)CC2)cc1`, the compound was called inactive.
In the case of `CCC(=O)Nc1ccccc1-c1nc2ccccc2n(CC(=O)Nc2ccc(C)c(C)c2)c1=O`, the “activity change, negative = inhibition” value is inactive: 2.4%.
Still for that read-out and setting: the result for `COc1ccc(Cl)cc1NC(=O)c1sc2nc(-c3ccc(OC)c(OC)c3)ccc2c1N` reads inactive: 6.6%; that for `COc1ccc(CCNC(=O)CSCc2nc(-c3cccc(C)c3)oc2C)cc1OC`, inactive: 5.36%; that for `O=C(NCc1ccccc1)c1ccc2c(c1)N(Cc1ccc(F)cc1)CCS2`, inactive: 0.959%.
`O=C(NC1CCCC1)c1ccc(CSc2nc3cccnc3n2Cc2ccccc2)cc1`: the “activity change, negative = inhibition” value is inactive: 4.39%.
Same read-out and setting: the result for `COC(=O)c1ccc(NC(=O)NC(C)c2c(-n3cccc3)sc(C)c2C)cc1` (stereo unspecified) reads inactive: -18.4%.
Take `CCc1cccc(C)c1NC(=O)CN1C(=O)c2ccccc2Sc2ncccc21`: the outcome was inactive.
With `CCCNC(=O)C1CCC(Cn2c(=O)c3sccc3n(CC(=O)N3CCCC3)c2=O)CC1` (stereo unspecified), the “activity change, negative = inhibition” value was inactive: -2.53%.
Same read-out and setting: in the case of `O=C(COc1ccc(Cl)cc1)Nc1ccc(-c2nc3cc(Cl)ccc3o2)c(O)c1` it was inactive: 1.6%.
Take `COC(=O)c1sc2cccc(F)c2c1S(=O)(=O)Nc1cc(C)c(Cl)cc1OC`: the compound was classed as inactive.
`Cc1c(C(=O)Nc2cccc(C#N)c2)sc2nc3n(c(=O)c12)CCCCC3`: the “activity change, negative = inhibition” value is inactive: -5.56%.
For `CCc1ccc(S(=O)(=O)c2nnn3c2nc(N2CCC(C(N)=O)CC2)c2cc(Cl)ccc23)cc1`, the “activity change, negative = inhibition” value was inactive: 0.0792%.
On the same count and under the same terms, the result for `CCCNC(=O)CN1C(=O)c2c(c3ccccc3n2C)C1c1ccc(OC)cc1` (stereo unspecified) reads inactive: -8.01%; that for `COc1ccc(CNC(=O)c2cc3oc4ccccc4c3n2C)cc1OC`, inactive: 10.5%.
Turning to `Cc1cccc(N(C)c2nc3ccc(C)cc3n3cnnc23)c1`, the “activity change, negative = inhibition” value is inactive: 11.8%.
Still for that read-out and setting: in the case of `CCCCOc1ccccc1C(=O)Nc1nonc1-c1ccccc1` it was inactive: 1.63%; in that of `CC(C)CC(=O)NCC1(N(C)C)CCCCC1`, inactive: -10.3%.
In the case of `CCCc1ccc(OCC(=O)Nc2sc3c(c2C(=O)OC)CCCCC3)cc1`, the outcome was inactive.
